# Source: patent US20250352527A1, “METHODS FOR TREATING VIRAL INFECTIONS, ORGAN INJURY, AND RELATED CONDITIONS” (Akebia Therapeutics, Inc., priority 2021, published 2025)
# Experiments:
# Assay type in all cases: in vivo
# [1] = tested on: LPS-induced pulmonary inflammation in male Swiss Webster mice; test: LPS-induced lung inflammation model, overall effect on disease parameters; settings: daily oral treatment, 100 or 300 mg/kg
# Description: (§1) All animals survived to study termination.
# Body weight measurements were collected and the animals were euthanized for necropsy and terminal sample collection on day 0 or day 1.
# [2] = tested on: LPS-induced pulmonary inflammation in male Swiss Webster mice; test: Absolute total nucleated cells in lung lavage (BAL), LPS-induced lung inflammation model; settings: vs vehicle disease control
# Experimental: as §1
# (§2) After euthanasia, a 20 G blunt-tipped needle was inserted into the trachea, and the lungs were washed 3 times with 0.8 mL of sterile saline. The samples were pooled into a 15-mL flip-top conical tube and kept on ice. The BAL was spun at 400 g for 5 minutes at 4° C., and supernatant was aspirated and aliquoted (≥100 L/mouse for Luminex, ≥100 μL/mouse for protein assay, and remainder). The cell pellet was resuspended in 1 mL sterile saline and counted via Luna-FL™. Absolute cell counts are included in Table 3. After the cell count, 100 μL of the cell suspension was spun down in a Cytospin® collection funnel with an attached slide. The slides were fixed followed by staining with a Diff-Quick stain. The cell differentiation counts were quantified under a light microscope.
# [3] = tested on: LPS-induced pulmonary inflammation in male Swiss Webster mice; test: Lung histopathology in LPS-induced lung inflammation model; settings: for lung histopathology: 8 hours post-LPS
# Experimental: as §1
# Following lavage, whole lungs were infused with approximately 0.8 mL of neutral buffered formalin (NBF) via the trachea then excised and placed in 10% NBF at room temperature for histology.
# Lungs are collected into formalin, routinely processed, sectioned longitudinally for maximum area visualization, and stained with hematoxylin and eosin (H & E). The entire section of lung is evaluated by light microscopy by a board-certified pathologist.
# Peribronchiolar/perivascular Lymphoid Inflammation (BALT): The widths of lymphoid cell infiltrates of five of the most severely-affected areas are measured, and a mean is determined.
# Interstitial Inflammation Score: The approximate percentage of lung affected by inflammation is evaluated and scored as follows: • 0=None • 0.5=Very minimal, ≤5% • 1=Minimal, 6-10% • 2=Mild, 11-25% • 3=Moderate, 26-50% • 4=Marked, 51-75% • 5=Severe, >75%
# Neutrophil Percent and Neutrophil Score: Inflammatory cell infiltrates are evaluated for approximate percent of neutrophils in the total infiltrate, rounded to 0, 10, 25, 50, or 75 percent. This value is then multiplied by the inflammation score to determine the neutrophil score.
# Peribronchiolar/perivascular Edema Score: Peribronchiolar/perivascular widening by edema of five of the most severely-affected areas are measured, and a mean is determined. A score is assigned based on that mean as follows: • 0=None • 0.5=Very minimal, ≤25 microns • 1=Minimal, 26-50 microns • 2=Mild, 51-75 microns • 3=Moderate, 76-100 microns • 4=Marked, 101-150 microns • 5=Severe, >150 microns
# Airway Epithelial Damage Score: Lungs are scored for the degree of airway epithelial damage, according to the worst lesion present, as follows: • 0=None; normal intact airway epithelium • 1=Elongation and distortion of the cuboidal/columnar epithelial cells lining the airways • 2=Elongation associated with in folding of the epithelium and narrowing of the airway lumen • 3=Loss of epithelial cells resulting in broken airways
# Histopathology Sum: A sum of all the above scores is calculated.
# [4] = tested on: LPS-induced pulmonary inflammation in male Swiss Webster mice; test: Lung lavage (BAL) cell differentials in LPS-induced lung inflammation model; settings: vs vehicle disease control; for macrophages per milliliter in BAL fluids / neutrophils per milliliter in BAL fluids / reduction in absolute macrophage concentration (cells/mL) in BAL / reduction in absolute neutrophil concentration (cells/mL) in BAL: 24 hours post-LPS; for reduction in absolute macrophage concentration (cells/mL) in BAL / reduction in absolute neutrophil concentration (cells/mL) in BAL: 4 doses
# Experimental: as §1, §2
# A total of 100 cells (or the total number if less than 100) was counted, and the total percentage of each cell type and the number of cells per milliliter of BAL fluid were calculated.
# [5] = 100 mg/kg PO QD days -2 to 0 (final dose 1 h pre-LPS), 6 hours post-LPS
# [6] = 100 mg/kg PO single dose 1 h post-LPS, 8 hours post-LPS
# [7] = 100 mg/kg PO QD, 6 hours post-LPS, vs 6-hour vehicle disease control
# [8] = 100 mg/kg PO QD, 6 hours post-LPS, vs vehicle disease control
# [9] = 300 mg/kg PO QD, 6 hours post-LPS, vs 6-hour vehicle disease control
# [10] = 300 mg/kg PO QD, 6 hours post-LPS, vs vehicle disease control
# [11] = 300 mg/kg PO QD, 24 hours post-LPS, vs 24-hour vehicle disease control
# [12] = 300 mg/kg PO QD, 24 hours post-LPS, vs vehicle disease control
# [13] = 100 mg/kg PO QD days -2 to 0 (final dose 7 h post-LPS)
# [14] = 300 mg/kg PO QD days -2 to 0 (final dose 7 h post-LPS)
# [15] = 3 mg/kg PO 1x 1 h pre-LPS, 6 hours post-LPS
# [16] = 3 mg/kg PO 1x 1 h pre-LPS, 6 hours post-LPS, vs 6-hour vehicle disease control
compound,measurement,setting,value
"O=C(O)CNC(=O)c1ncc(-c2cccc(Cl)c2)cc1O [Compound 1, {[5-(3-chlorophenyl)-3-hydroxypyridine-2-carbonyl]amino}acetic acid]",effect on LPS-induced lung inflammation,[1],beneficial effects
same,total nucleated cell counts in BAL fluids,[2]; [5],did not differ statistically
same,reduction in total nucleated cell counts in BAL,"[2]; 100 mg/kg PO QD, 4 doses, 24 hours post-LPS",47%
same,total nucleated cell counts in BAL fluids,[2]; [6],no significant differences
same,reduction in total nucleated cell counts in BAL,"[2]; 300 mg/kg PO QD, 4 doses, 24 hours post-LPS",63%
same,total nucleated cell counts in BAL fluids,"[2]; 300 mg/kg PO single dose 1 h post-LPS, 8 hours post-LPS",no significant differences
same,reduction in interstitial inflammation score,[3]; [7],27%
same,reduction in neutrophil score,[3]; [7],27%
same,reduction in summed lung scores,[3]; [7],27%
same,interstitial inflammation score,[3]; [8],Significantly reduced
same,neutrophil score (lung histopathology),[3]; [8],Significantly reduced
same,summed lung scores,[3]; [8],Significantly reduced
same,lung histopathology,"[3]; 100 mg/kg PO single dose 1 h post-LPS, vs vehicle disease control",no significant differences
same,reduction in interstitial inflammation score,[3]; [9],27%
same,reduction in neutrophil score,[3]; [9],27%
same,reduction in summed lung scores,[3]; [9],27%
same,interstitial inflammation score,[3]; [10],Significantly reduced
same,neutrophil score (lung histopathology),[3]; [10],Significantly reduced
same,summed lung scores,[3]; [10],Significantly reduced
same,reduction in interstitial inflammation score,[3]; [11],31%
same,reduction in neutrophil score,[3]; [11],31%
same,reduction in summed lung scores,[3]; [11],33%
same,interstitial inflammation score,[3]; [12],Significantly reduced
same,neutrophil score (lung histopathology),[3]; [12],Significantly reduced
same,summed lung scores,[3]; [12],Significantly reduced
same,lung histopathology,"[3]; 300 mg/kg PO single dose 1 h post-LPS, vs vehicle disease control",no significant differences
same,lung histopathology scores,"[3]; daily oral treatment, 100 or 300 mg/kg, 6 and 24 hours post-LPS, vs disease controls",significant improvements
same,peribronchiolar lymphoid inflammation widths,"[3]; dose not stated (100 or 300 mg/kg groups, PO QD), 24 hours post-LPS, vs vehicle disease control","Slight decrease in peribronchiolar lymphoid inflammation widths at 24 hours post-LPS for mice treated with Compound 1 as compared to vehicle disease control mice, although statistically insignificant"
same,cell differentials in BAL fluids,[4]; [5],did not differ statistically
same,macrophages per milliliter in BAL fluids,[4]; [13],significantly reduced
same,neutrophils per milliliter in BAL fluids,[4]; [13],significantly reduced
same,reduction in absolute macrophage concentration (cells/mL) in BAL,[4]; 100 mg/kg PO QD,47%
same,reduction in absolute neutrophil concentration (cells/mL) in BAL,[4]; 100 mg/kg PO QD,47%
same,relative lymphocyte counts in BAL fluids,[4]; [6],significant increases
same,macrophages per milliliter in BAL fluids,[4]; [14],significantly reduced
same,neutrophils per milliliter in BAL fluids,[4]; [14],significantly reduced
same,reduction in absolute macrophage concentration (cells/mL) in BAL,[4]; 300 mg/kg PO QD,65%
same,reduction in absolute neutrophil concentration (cells/mL) in BAL,[4]; 300 mg/kg PO QD,63%
"C[C@@H]1C[C@H]2[C@@H]3CCC4=CC(=O)C=C[C@]4(C)[C@@]3(F)[C@@H](O)C[C@]2(C)[C@@]1(O)C(=O)CO [dexamethasone, reference compound]",reduction in total nucleated cell counts in BAL,[2]; [15],63%
same,reduction in viable cells in BAL,[2]; [15],24%
same,reduction in interstitial inflammation score,[3]; [16],79%
same,reduction in neutrophil score,[3]; [16],79%
same,reduction in summed lung scores,[3]; [16],79%
